Measurements: patent US11999759B2, “Boronic acid derivatives and therapeutic uses thereof” (Qpex Biopharma, Inc., priority 2016, dated 2024)
The name of at least one read-out is uncertain.

Experiments:
ECL1002 [1] = assay: Tigemonam potentiation (MPC@4), strain ECL1002; format: cell-based; settings: minimum BLI concentration inhibiting growth with tigemonam at 4 ag/mL (so in the source); BLI up to 40
EC1010 (CMY-6) = assay: Tigemonam potentiation (MPC@4), strain EC1010; format: cell-based; settings: minimum BLI concentration inhibiting growth with tigemonam at 4 ag/mL (so in the source); BLI up to 40
KP1004 (KPC-2) [2] = assay: Biapenem potentiation (MPC@1), strain KP1004; format: cell-based; settings: minimum BLI concentration inhibiting growth with biapenem at 1 (MPC@1); BLI up to 40
Source text: (§1) Biapenem was present in the test medium at 1 Dg/mL. […] Table 4 summarizes the BLI potency of biapenem potentiation (MPC@1) for two strains overexpressing class A (KPC) and class D (OXA-48) carbapenemases. Biapenem MIC for each strain is also shown.

KP1086 (OXA-48) = assay: Biapenem potentiation (MPC@1), strain KP1086; format: cell-based; settings: minimum BLI concentration inhibiting growth with biapenem at 1 (MPC@1); BLI up to 40
Source text: as §1

KP1081 (NDM-1) = assay: Biapenem potentiation (MPC@1), strain KP1081; format: cell-based; settings: minimum BLI concentration inhibiting growth with biapenem at 1 (MPC@1); BLI up to 40
KP1054 (VIM-1) = assay: Biapenem potentiation (MPC@1), strain KP1054; format: cell-based; settings: minimum BLI concentration inhibiting growth with biapenem at 1 (MPC@1); BLI up to 40
AB1053 (OXA-72) = assay: Meropenem potentiation (MPC@8), strain AB1053; format: cell-based, Acinetobacter baumannii; settings: minimum BLI concentration inhibiting growth with meropenem at 8 (MPC@8); BLI up to 20
KP1004 (KPC-2) [3] = assay: Aztreonam potentiation (MPC@4), strain KP1004; settings: minimum BLI concentration inhibiting growth with aztreonam at 4 μg/mL; BLI up to 40 μg/mL
ECL1002 [4] = assay: Aztreonam potentiation (MPC@4), strain ECL1002; settings: minimum BLI concentration inhibiting growth with aztreonam at 4 μg/mL; BLI up to 40 μg/mL

SMILES	TIG MPC4 ECL1002 (ECL1002 [1])	TIG MPC4 CMY-6 EC1010 (EC1010 (CMY-6))	BPM MPC1 KP1004 KPC-2 (KP1004 (KPC-2) [2])	BPM MPC1 OXA-48 KP1086 (KP1086 (OXA-48))	BPM MPC1 KP1081 NDM-1 (KP1081 (NDM-1))	BPM MPC1 KP1054 VIM-1 (KP1054 (VIM-1))	MPM MPC8 AB1053 OXA-72 (AB1053 (OXA-72))	AZT MPC4 KPC-2 KP1004 (KP1004 (KPC-2) [3])	AZT MPC4 ECL1002 (ECL1002 [4])
COc1ccc2c(c1C(=O)O)OB(O)C1CC21 (stereo not drawn) [Compound 1, 2-Hydroxy-5-methoxy-1a,7b-dihydro-1H-cyclopropa[c][1,2]benzoxaborinine-4-carboxylic acid]	X (X = MPC@4 ≤ 5 μg/mL)	X (X = MPC@4 ≤ 5 μg/mL)	X (X = MPC@1 ≤ 5 μg/mL)	X (X = MPC@1 ≤ 5 μg/mL)	X (X = MPC@1 ≤ 5 μg/mL)	X (X = MPC@1 ≤ 5 μg/mL)	X (X = MPC@1 ≤ 5 μg/mL)	X (X = MPC@4 ≤ 5 μg/mL)	X (X = MPC@4 ≤ 5 μg/mL)
COc1ccc2c(c1C(=O)O)OB(O)[C@H]1C[C@@H]21 [Compound 2, (1aS,7bR)-2-hydroxy-5-methoxy-1a,7b-dihydro-1H-cyclopropa[c][1,2]benzoxaborinine-4-carboxylic acid]	X (X = MPC@4 ≤ 5 μg/mL)	X (X = MPC@4 ≤ 5 μg/mL)	X (X = MPC@1 ≤ 5 μg/mL)	X (X = MPC@1 ≤ 5 μg/mL)	X (X = MPC@1 ≤ 5 μg/mL)	Y (Y = 5 μg/mL < MPC@1 ≤ 20 μg/mL)	X (X = MPC@1 ≤ 5 μg/mL)	X (X = MPC@4 ≤ 5 μg/mL)	X (X = MPC@4 ≤ 5 μg/mL)
COc1ccc2c(c1C(=O)O)OB(O)[C@@H]1C[C@H]21 [Compound 3, (1aR,7bS)-2-hydroxy-5-methoxy-1a,7b-dihydro-1H-cyclopropa[c][1,2]benzoxaborinine-4-carboxylic acid]	X (X = MPC@4 ≤ 5 μg/mL)	X (X = MPC@4 ≤ 5 μg/mL)	X (X = MPC@1 ≤ 5 μg/mL)	X (X = MPC@1 ≤ 5 μg/mL)	X (X = MPC@1 ≤ 5 μg/mL)	X (X = MPC@1 ≤ 5 μg/mL)	X (X = MPC@1 ≤ 5 μg/mL)	X (X = MPC@4 ≤ 5 μg/mL)	X (X = MPC@4 ≤ 5 μg/mL)
O=C(O)c1c(F)ccc2c1OB(O)C1CC21 (stereo not drawn) [Compound 4, 5-Fluoro-2-hydroxy-1a,7b-dihydro-1H-cyclopropa[c][1,2]benzoxaborinine-4-carboxylic acid]	X (X = MPC@4 ≤ 5 μg/mL)	X (X = MPC@4 ≤ 5 μg/mL)	X (X = MPC@1 ≤ 5 μg/mL)	X (X = MPC@1 ≤ 5 μg/mL)	X (X = MPC@1 ≤ 5 μg/mL)	X (X = MPC@1 ≤ 5 μg/mL)	X (X = MPC@1 ≤ 5 μg/mL)	X (X = MPC@4 ≤ 5 μg/mL)	X (X = MPC@4 ≤ 5 μg/mL)
COc1ccc2c(c1C(=O)O)OB(O)C1C2C1(F)F (stereo not drawn) [Compound 5, 1,1-Difluoro-2-hydroxy-5-methoxy-1a,7b-dihydrocyclopropa[c][1,2]benzoxaborinine-4-carboxylic acid]	X (X = MPC@4 ≤ 5 μg/mL)	X (X = MPC@4 ≤ 5 μg/mL)	X (X = MPC@1 ≤ 5 μg/mL)	X (X = MPC@1 ≤ 5 μg/mL)	X (X = MPC@1 ≤ 5 μg/mL)	Y (Y = 5 μg/mL < MPC@1 ≤ 20 μg/mL)	X (X = MPC@1 ≤ 5 μg/mL)	X (X = MPC@4 ≤ 5 μg/mL)	Y (Y = 5 μg/mL < MPC@4 ≤ 20 μg/mL)
COc1ccc2c(c1C(=O)O)OB(O)C1C2[C@H]2C=C[C@@H]1C2 (stereo partly drawn) [Compound 6, (7R,10R)-6-hydroxy-3-methoxy-6a,7,10,10a-tetrahydro-6H-7,10-methanodibenzo[c,e][1,2]oxaborinine-4-carboxylic acid]	Y (Y = 5 μg/mL < MPC@4 ≤ 20 μg/mL)	Z (Z = MPC@4 > 20 μg/mL)	Y (Y = 5 μg/mL < MPC@1 ≤ 20 μg/mL)	Z (Z = MPC@1 > 20 μg/mL)	Z (Z = MPC@1 > 20 μg/mL)	Z (Z = MPC@1 > 20 μg/mL)	Z (Z = MPC@1 > 20 μg/mL)	Z (Z = MPC@4 > 20 μg/mL)	Z (Z = MPC@4 > 20 μg/mL)
COc1ccc2c(c1C(=O)O)OB(O)C1C2[C@H]2CC[C@@H]1C2 (stereo partly drawn) [Compound 7, (7R,10S)-6-hydroxy-3-methoxy-6a,7,8,9,10,10a-hexahydro-6H-7,10-methanodibenzo[c,e][1,2]oxaborinine-4-carboxylic acid]	Z (Z = MPC@4 > 20 μg/mL)	Z (Z = MPC@4 > 20 μg/mL)	X (X = MPC@1 ≤ 5 μg/mL)	Z (Z = MPC@1 > 20 μg/mL)	Y (Y = 5 μg/mL < MPC@1 ≤ 20 μg/mL)	Y (Y = 5 μg/mL < MPC@1 ≤ 20 μg/mL)	Z (Z = MPC@1 > 20 μg/mL)	Y (Y = 5 μg/mL < MPC@4 ≤ 20 μg/mL)	Z (Z = MPC@4 > 20 μg/mL)
COc1ccc2c(c1C(=O)O)OB(O)C(F)=C2 [Compound 8, 3-Fluoro-2-hydroxy-7-methoxy-1,2-benzoxaborinine-8-carboxylic acid]	X (X = MPC@4 ≤ 5 μg/mL)	X (X = MPC@4 ≤ 5 μg/mL)	X (X = MPC@1 ≤ 5 μg/mL)	X (X = MPC@1 ≤ 5 μg/mL)	X (X = MPC@1 ≤ 5 μg/mL)	X (X = MPC@1 ≤ 5 μg/mL)	X (X = MPC@1 ≤ 5 μg/mL)	X (X = MPC@4 ≤ 5 μg/mL)	X (X = MPC@4 ≤ 5 μg/mL)
COc1ccc2c(c1C(=O)O)OB(O)C=C2 [Compound 9, 2-Hydroxy-7-methoxy-1,2-benzoxaborinine-8-carboxylic acid]	X (X = MPC@4 ≤ 5 μg/mL)	X (X = MPC@4 ≤ 5 μg/mL)	X (X = MPC@1 ≤ 5 μg/mL)	X (X = MPC@1 ≤ 5 μg/mL)	Z (Z = MPC@1 > 20 μg/mL)	Z (Z = MPC@1 > 20 μg/mL)	Y (Y = 5 μg/mL < MPC@1 ≤ 20 μg/mL)	X (X = MPC@4 ≤ 5 μg/mL)	Y (Y = 5 μg/mL < MPC@4 ≤ 20 μg/mL)
O=C(O)c1cccc2c1OB(O)C1CC21 (stereo not drawn) [Compound 10, 2-Hydroxy-1a,7b-dihydro-1H-cyclopropa[c][1,2]benzoxaborinine-4-carboxylic acid]	X (X = MPC@4 ≤ 5 μg/mL)	X (X = MPC@4 ≤ 5 μg/mL)	X (X = MPC@1 ≤ 5 μg/mL)	X (X = MPC@1 ≤ 5 μg/mL)	X (X = MPC@1 ≤ 5 μg/mL)	X (X = MPC@1 ≤ 5 μg/mL)	Y (Y = 5 μg/mL < MPC@1 ≤ 20 μg/mL)	X (X = MPC@4 ≤ 5 μg/mL)	X (X = MPC@4 ≤ 5 μg/mL)
COc1ccc2c(c1C(=O)O)OB(O)CC21CC1 [Compound 11, 2-hydroxy-7-methoxy-spiro[3H-1,2-benzoxaborinine-4,1′-cyclopropane]-8-carboxylic acid]	X (X = MPC@4 ≤ 5 μg/mL)	X (X = MPC@4 ≤ 5 μg/mL)	X (X = MPC@1 ≤ 5 μg/mL)	X (X = MPC@1 ≤ 5 μg/mL)	X (X = MPC@1 ≤ 5 μg/mL)	Y (Y = 5 μg/mL < MPC@1 ≤ 20 μg/mL)	X (X = MPC@1 ≤ 5 μg/mL)	X (X = MPC@4 ≤ 5 μg/mL)	X (X = MPC@4 ≤ 5 μg/mL)
O=C(O)c1c(F)ccc2c1OB(O)[C@H]1C[C@@H]21 [Compound 12, (1aS,7bR)-5-fluoro-2-hydroxy-1a,7b-dihydro-1H-cyclopropa[c][1,2]benzoxaborinine-4-carboxylic acid]	X (X = MPC@4 ≤ 5 μg/mL)	X (X = MPC@4 ≤ 5 μg/mL)	X (X = MPC@1 ≤ 5 μg/mL)	X (X = MPC@1 ≤ 5 μg/mL)	X (X = MPC@1 ≤ 5 μg/mL)	Z (Z = MPC@1 > 20 μg/mL)	X (X = MPC@1 ≤ 5 μg/mL)	X (X = MPC@4 ≤ 5 μg/mL)	X (X = MPC@4 ≤ 5 μg/mL)
O=C(O)c1c(F)ccc2c1OB(O)[C@@H]1C[C@H]21 [Compound 13, (1aR,7bS)-5-fluoro-2-hydroxy-1a,7b-dihydro-1H-cyclopropa[c][1,2]benzoxaborinine-4-carboxylic acid]	X (X = MPC@4 ≤ 5 μg/mL)	X (X = MPC@4 ≤ 5 μg/mL)	X (X = MPC@1 ≤ 5 μg/mL)	X (X = MPC@1 ≤ 5 μg/mL)	X (X = MPC@1 ≤ 5 μg/mL)	X (X = MPC@1 ≤ 5 μg/mL)	X (X = MPC@1 ≤ 5 μg/mL)	X (X = MPC@4 ≤ 5 μg/mL)	X (X = MPC@4 ≤ 5 μg/mL)
